Measurements as given in the supplement of paper PMC3334620.
Over roughly 33,000 sequences, “E-score (-0.5 to 0.5)” has its median near -0.035; the highest 2% begin near 0.35. Some of the results follow.

Each sequence was assayed against T1, Pdr3 (UniProt P33200) (assay: PBM E-score (8-mer binding enrichment) (E-score (-0.5 to 0.5)); higher = stronger / more preferred TF binding; most listed sequences are background and not binding sites). Details: protein concentration: 200 nM; construct: GST-full length.
T1 sequence: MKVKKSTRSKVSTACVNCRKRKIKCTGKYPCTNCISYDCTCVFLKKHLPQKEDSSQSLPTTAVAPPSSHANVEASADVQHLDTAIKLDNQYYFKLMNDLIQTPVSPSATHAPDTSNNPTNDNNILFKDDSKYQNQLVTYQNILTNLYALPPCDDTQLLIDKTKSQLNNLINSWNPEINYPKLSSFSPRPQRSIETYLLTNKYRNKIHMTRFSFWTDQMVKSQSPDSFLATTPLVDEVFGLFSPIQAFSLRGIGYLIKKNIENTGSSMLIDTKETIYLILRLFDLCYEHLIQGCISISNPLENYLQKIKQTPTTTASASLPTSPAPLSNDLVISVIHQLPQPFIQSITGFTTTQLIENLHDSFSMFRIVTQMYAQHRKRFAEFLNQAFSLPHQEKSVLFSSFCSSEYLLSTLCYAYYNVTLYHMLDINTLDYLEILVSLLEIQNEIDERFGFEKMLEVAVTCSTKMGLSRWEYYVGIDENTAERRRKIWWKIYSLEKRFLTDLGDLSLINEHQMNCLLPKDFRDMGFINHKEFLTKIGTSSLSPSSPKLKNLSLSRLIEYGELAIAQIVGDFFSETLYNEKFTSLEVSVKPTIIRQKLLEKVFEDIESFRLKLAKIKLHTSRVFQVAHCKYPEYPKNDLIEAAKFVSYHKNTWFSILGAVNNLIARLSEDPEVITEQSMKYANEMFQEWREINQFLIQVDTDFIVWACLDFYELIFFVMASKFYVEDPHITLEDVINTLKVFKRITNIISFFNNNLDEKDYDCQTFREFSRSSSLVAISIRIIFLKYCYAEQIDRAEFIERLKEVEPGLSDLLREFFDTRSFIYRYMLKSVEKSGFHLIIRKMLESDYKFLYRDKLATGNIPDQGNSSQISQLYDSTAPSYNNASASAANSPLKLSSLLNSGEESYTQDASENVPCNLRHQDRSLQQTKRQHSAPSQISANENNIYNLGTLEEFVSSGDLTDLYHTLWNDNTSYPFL
Outline: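 Masliner-normalised scans of fluorescent anti-GST signal were the basis for scoring. That signal came from GST-tagged yeast transcription factors applied at about 100-200 nM to double-stranded universal all-10-mer Agilent arrays on fresh or once-stripped slides. Each ungapped eight-base word, pooled with its reverse complement, received an E-score from the Universal PBM Analysis Suite.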

Sequence	PBM E-score
ACTTCCAA	-0.127
ATGCACAT	-0.0689
ATTTGTCA	-0.2
ATGTAAGA	-0.0241
ACACGACG	-0.0259
AATCAAGT	-0.137
ACTAGAAT	-0.186
AACTATGT	-0.0803
CCGGGGAG	0.332
ACCAGGGA	-0.191
AGCATTTG	-0.0766
AAAGAAGG	-0.119
GCGAAAGC	-0.0113
AGTACAGG	-0.0909
ATAATGTC	0.209
CCGTAACA	-0.0633
CGGCTGGC	0.171
CACTCATA	-0.11
CGATGCCA	-0.147
AATTGTTG	-0.258
GATAAAGA	-0.18
ACAGATTG	0.0375
AAGGGCTC	-0.247
GTGACTCA	-0.17
ACCACCTG	0.0602

Sequence	PBM E-score
GCAGTCAC	-0.131
CAAACCGC	0.108
ACGCGCAA	0.168
TATTGAGA	-0.188
CCTTTAAG	-0.287
ACCGGCGG	0.256
ACAGAGAA	-0.0645
CGGCCGAC	0.315
CTAGGTGC	-0.121
ACTGGCGG	0.153
GTAAGTCA	-0.193
CGACCGGA	0.358
GTGGAAGA	-0.0507
ACTTCCCA	-0.0401
GCATCAAC	0.115
AAAATTTA	-0.0266
CCTGTAAG	-0.309
CGAAAAAG	0.159
ACGCCCGA	0.153
ACCAAAAG	-0.176
AATGCAGC	-0.144
GGGGCATA	0.0389
CCGGATAG	0.347
CCAGTAAA	-0.0539
AGTATTCA	-0.0479

Sequence	PBM E-score
TCATCCCA	-0.179
GACTCTAA	0.0119
ACCGAGTG	-0.0934
TCATAAGA	-0.0952
TACATCCA	-0.145
CGCGGTAC	0.367
AGGCTGCG	-0.0951
CCTGGGCC	-0.0401
TAATTTCA	0.109
ATGTTCTC	-0.205
CTACTTTC	-0.103
AGCCGGGA	0.3
ATGTCAGC	-0.0544
ACGGTTCT	-0.134
CGCGGCGA	0.374
AACGGACG	0.241
AGAGTGAT	-0.125
CTTTAACA	-0.129
GTTAATTA	0.0853
ATTCAAAA	0.0638
TGATGCCA	-0.158
CGGTTGTA	-0.15
CGGCGAAC	0.208
CCGCATTA	0.233
ATACCCTC	0.0772

Sequence	PBM E-score
AGTTATGA	-0.136
ATCGAGTA	-0.1
CTTTGTGC	-0.0216
TCCACTCA	-0.0727
GTGTGCGA	-0.0397
CGGTCGAC	0.26
GTTGAGGA	-0.109
AAAATAAA	0.0451
AAATATCA	0.0813
CCCGATAC	0.14
GTGCCAAA	-0.0342
AAGTTACC	0.0215
CTACGAAC	-0.167
CCGGCCCA	-0.0155
ATACAGAT	-0.00935
ACTAGTCA	-0.271
CTCGCATA	-0.179
AAGGGTTG	-0.182
CCAATAGG	-0.154
ATGGTCTA	-0.193
CTATTAGA	-0.258
GAAACGTC	-0.00886
TCTGAACA	-0.0452
CCTGCTTA	-0.18
CTGCTGTA	-0.218

Sequence	PBM E-score
GAGATGTA	-0.0787
GAAGAAGA	-0.0261
AAACTGCT	-0.188
CGGGGTGC	0.221
AAACTGTC	-0.121
ATCCCCTC	-0.151
CGTACGAA	-0.0596
CTTGTTAA	-0.0167
AACTGCCT	0.0192
GATTTTCC	0.175
AAACTGAC	-0.081
TCGGTCCA	-0.0553
GTACTGTA	-0.0989
ATGGCGAC	-0.0736
ACTAATAG	-0.0277
ACGAACTA	0.0052
CTCTTCAA	-0.188
CTACGGTA	0.0438
AAGCTCCG	0.341
AGCGAAGA	-0.201
AAACACAG	-0.0271
TCGTCAAA	-0.0356
CCCGTTAC	0.076
CAATCTCA	-0.135
AAACCAGT	-0.227

Sequence	PBM E-score
CGGCCGCA	0.323
AACTCCAT	0.0398
GCGGTTCC	0.293
AAACGCGT	0.0229
GCAGCCAC	0.0849
ATACTCCA	-0.0793
CCCGGTTA	0.115
ACCCTGTG	-0.111
CGAACTCA	0.0257
GCACGACA	-0.208
TCGAGAGA	-0.112
ACGGAATC	0.465
AAAAGTCG	0.0902
GTGATTAA	-0.0262
GATTCTAC	0.0673
CTACCTAG	-0.311
AAGGTAAT	0.02
CGAGGGAC	-0.18
AACTGGCG	0.115
AATATTTC	0.0855
AGTTTGCG	0.104
TAGGAGCA	-0.304
CTGCCCTA	-0.0448
AAGAATGG	0.0896
CGATCGTA	-0.0413

Sequence	PBM E-score
GATGTCGA	0.0591
CTAAGCCC	-0.0716
GCCTGAGA	-0.0349
AAGAACTC	-0.0426
ATGTCATG	-0.0275
GCAAGCAC	-0.347
TATACACA	-0.176
CGAGACCA	0.00775
CGTCACAA	-0.023
ATTCGTAA	-0.105
ATCATGTA	-0.246
GATACCGC	0.23
CAGTTAGA	-0.171
CTACAAGC	-0.0653
GGTAGCGA	0.0424
CTCGTTCC	0.268
ACAAAATG	-0.0212
ATACGCTG	0.00053
TCCTATCA	-0.175
ATTCTATA	-0.0384
CATGGGCG	0.158
CTAAGGTC	-0.232
